Reference: a collection of fitness landscapes (doi:10.1016/j.celrep.2020.107928)
Whole data set: some 81,000 sequences, median “one-hybrid fitness for binding NBS DNA” near -0.1, cut for the highest 2% near 0.36. This is one part of the list.

B1: Caulobacter ParB omega fusion; a variant is named by its letters at X, in order, B8GW30 (parent)
chain: MESVVVGEPGMSEGRRGLGRGLSALLGEVDAAPAQAPGEQLGGSREAPIEILQRNPDQPRRTFREEDLEDLSNSIREKGVLQPILVRPSPDTAGEYQIVAGERAWRAAQRAGLKTVPIMVRELDDLAVLEIGIIENVQRADLNVLEEALSYKVLMEKFERTQENIAQTIGKSXSHVANXMRLLXLPDEVQSYLVSGELTAXHARAIAAAADPVALAKQIIEGGLSVRETEALARKAPNLSAGKSKGGRPPRVKDTDTQALESDLSSVLGLDVSIDHRGSTGTLTITYATLEQLDDLCNRLTRGI

Variants of: B1
Assay: one-hybrid fitness for binding NBS DNA (the Noc-binding site; scaled: cognate 1, non-cognate 0); higher = stronger binding
Conditions: with NBS DNA site
Method in brief: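 Caulobacter ParB libraries with four specificity codons randomised were screened by bacterial one-hybrid selection in the E. coli USO strain, using a HIS3 reporter whose site lies 19 bp from the promoter. Selection ran for 48 hours at 37°C on M9 lacking histidine, with 0.1 mM IPTG and 5 mM 3-AT. Plasmids were Illumina-sequenced before and after selection, three replicate libraries were pooled, and variants with under 10 reads were dropped. Fitness is the log change in each variant's read ratio to wild type, rescaled against the cognate and non-cognate sites.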

Row | Variant | one-hybrid fitness for binding NBS DNA
1 | TLGY | ≤ 0.2
2 | VTSC | ≤ 0.2
3 | PRMT | ≤ 0.2
4 | LQQR | ≤ 0.2
5 | PDHL | ≤ 0.2
6 | ASSL | ≤ 0.2
7 | TQAS | ≤ 0.2
8 | SEHI | ≤ 0.2
9 | CHDS | ≤ 0.2
10 | QMQW | ≤ 0.2
11 | YNNT | ≤ 0.2
12 | YFST | ≤ 0.2
13 | SLGS | ≤ 0.2
14 | HNFR | ≤ 0.2
15 | VASP | ≤ 0.2
16 | REQE | ≤ 0.2
17 | SGSQ | ≤ 0.2
18 | VEMG | ≤ 0.2
19 | LKGS | ≤ 0.2
20 | THAV | ≤ 0.2
21 | TFYS | ≤ 0.2
22 | TGYT | ≤ 0.2
23 | VAEA | ≤ 0.2
24 | CTYV | ≤ 0.2

Row | Variant | one-hybrid fitness for binding NBS DNA
25 | NIAS | ≤ 0.2
26 | PQVV | ≤ 0.2
27 | PNAL | ≤ 0.2
28 | LTPF | ≤ 0.2
29 | NNKG | ≤ 0.2
30 | FHKW | ≤ 0.2
31 | QQNQ | 0.242
32 | QIGE | ≤ 0.2
33 | TCAY | ≤ 0.2
34 | QDSY | ≤ 0.2
35 | QDKV | ≤ 0.2
36 | ISLP | ≤ 0.2
37 | LGMH | ≤ 0.2
38 | WRKE | ≤ 0.2
39 | SYSG | ≤ 0.2
40 | QFPE | ≤ 0.2
41 | QDWG | ≤ 0.2
42 | QLRD | ≤ 0.2
43 | LWAR | ≤ 0.2
44 | GPNV | ≤ 0.2
45 | WHEG | ≤ 0.2
46 | NQYG | ≤ 0.2
47 | TLVR | ≤ 0.2
48 | EGVR | ≤ 0.2

Row | Variant | one-hybrid fitness for binding NBS DNA
49 | LVTD | ≤ 0.2
50 | YSKQ | ≤ 0.2
51 | QCTM | ≤ 0.2
52 | QTFE | ≤ 0.2
53 | RCIW | ≤ 0.2
54 | RSLC | ≤ 0.2
55 | GQLW | ≤ 0.2
56 | NATQ | ≤ 0.2
57 | IDPL | ≤ 0.2
58 | RCRE | ≤ 0.2
59 | QSTR | 0.531
60 | RHLT | 0.33
61 | QTAP | ≤ 0.2
62 | LNYG | ≤ 0.2
63 | FLRT | ≤ 0.2
64 | EYFS | ≤ 0.2
65 | YGLY | ≤ 0.2
66 | ETSQ | ≤ 0.2
67 | SIIC | ≤ 0.2
68 | DAPC | ≤ 0.2
69 | PRLP | ≤ 0.2
70 | MVLH | ≤ 0.2
71 | RRNA | 0.679
72 | AVVM | ≤ 0.2

Row | Variant | one-hybrid fitness for binding NBS DNA
73 | TYSY | ≤ 0.2
74 | MKKW | ≤ 0.2
75 | LPVR | ≤ 0.2
76 | PDEH | ≤ 0.2
77 | HFYT | ≤ 0.2
78 | GGMG | ≤ 0.2
79 | QVKA | 0.345
80 | IVPT | ≤ 0.2
81 | ATSL | ≤ 0.2
82 | PEGG | ≤ 0.2
83 | NGNS | ≤ 0.2
84 | IVEC | ≤ 0.2
85 | ATAI | ≤ 0.2
86 | SPAR | ≤ 0.2
87 | AAVW | ≤ 0.2
88 | QQQK | ≤ 0.2
89 | KREK | ≤ 0.2
90 | PNVC | ≤ 0.2
91 | RICH | ≤ 0.2
92 | RDSV | ≤ 0.2
93 | RCGI | ≤ 0.2
94 | TMLG | ≤ 0.2
95 | VCLV | ≤ 0.2
96 | PNDN | ≤ 0.2

Row | Variant | one-hybrid fitness for binding NBS DNA
97 | PRKS | ≤ 0.2
98 | IMAM | ≤ 0.2
99 | QLQQ | ≤ 0.2
100 | ICGY | ≤ 0.2
101 | GIRG | ≤ 0.2
102 | TAGC | ≤ 0.2
103 | MWRR | ≤ 0.2
104 | LLNI | ≤ 0.2
105 | QLQW | ≤ 0.2
106 | NPER | ≤ 0.2
107 | ADKY | ≤ 0.2
108 | SPTW | ≤ 0.2
109 | ASWV | ≤ 0.2
110 | LHEV | ≤ 0.2
111 | CNGV | ≤ 0.2
112 | RTLP | ≤ 0.2
113 | HYWS | ≤ 0.2
114 | VVRA | ≤ 0.2
115 | YLAW | ≤ 0.2
116 | QCRL | 0.401
117 | QSQT | 0.411
118 | VFTY | ≤ 0.2
119 | QYMM | ≤ 0.2
120 | SIGM | ≤ 0.2

Row | Variant | one-hybrid fitness for binding NBS DNA
121 | SPKV | ≤ 0.2
122 | VICC | ≤ 0.2
123 | QSGI | ≤ 0.2
124 | DRRF | ≤ 0.2
125 | RLLY | ≤ 0.2
126 | HIHT | ≤ 0.2
127 | KYRN | ≤ 0.2
128 | MPSS | ≤ 0.2
129 | QWKT | 0.25
130 | VCQC | ≤ 0.2
131 | HKTT | ≤ 0.2
132 | ALGI | ≤ 0.2
133 | PLWS | ≤ 0.2
134 | RGQN | ≤ 0.2
135 | FEIG | ≤ 0.2
136 | RYPM | ≤ 0.2
137 | DATN | ≤ 0.2
138 | EPCM | ≤ 0.2
139 | RQNE | ≤ 0.2
140 | RAYH | ≤ 0.2
141 | THDI | ≤ 0.2
142 | PAGK | ≤ 0.2
143 | VVWY | ≤ 0.2
144 | VRVR | ≤ 0.2

Row | Variant | one-hybrid fitness for binding NBS DNA
145 | RTIV | ≤ 0.2
146 | QAHQ | ≤ 0.2
147 | NCLS | ≤ 0.2
148 | LWGG | ≤ 0.2
149 | LRFC | ≤ 0.2
150 | VRMP | ≤ 0.2
151 | NRSE | ≤ 0.2
152 | RGGC | ≤ 0.2
153 | LAYG | ≤ 0.2
154 | ADRN | ≤ 0.2
155 | QYVE | ≤ 0.2
156 | DKRW | ≤ 0.2
157 | ANSA | ≤ 0.2
158 | KEMS | ≤ 0.2
159 | PFNI | ≤ 0.2
160 | RNYT | ≤ 0.2
161 | KMQS | ≤ 0.2
162 | SWNA | ≤ 0.2
163 | ICPS | ≤ 0.2
164 | QPAC | ≤ 0.2
165 | QGKM | ≤ 0.2
166 | DNQG | ≤ 0.2
167 | LTAN | ≤ 0.2
168 | RDLG | ≤ 0.2

Row | Variant | one-hybrid fitness for binding NBS DNA
169 | HKTL | ≤ 0.2
170 | PVDC | ≤ 0.2
171 | MASC | ≤ 0.2
172 | TSDD | ≤ 0.2
173 | MADT | ≤ 0.2
174 | KRIT | 0.481
175 | YDFY | ≤ 0.2
176 | QLKR | 0.932
177 | QWAN | ≤ 0.2
178 | VYYG | ≤ 0.2
179 | NHDF | ≤ 0.2
180 | ACPD | ≤ 0.2
181 | SSTA | ≤ 0.2
182 | ITFT | ≤ 0.2
183 | RAKK | ≤ 0.2
184 | PSQK | ≤ 0.2
185 | RFAA | ≤ 0.2
186 | TCRP | ≤ 0.2
187 | FGPG | ≤ 0.2
188 | CAVP | ≤ 0.2
189 | GYSC | ≤ 0.2
190 | PGHR | ≤ 0.2
191 | KAPV | ≤ 0.2
192 | YQPP | ≤ 0.2

Row | Variant | one-hybrid fitness for binding NBS DNA
193 | PMEV | ≤ 0.2
194 | EEST | ≤ 0.2
195 | FQRM | ≤ 0.2
196 | PATI | ≤ 0.2
197 | TLRS | ≤ 0.2
198 | HRAD | ≤ 0.2
199 | RNPV | ≤ 0.2
200 | PSVS | ≤ 0.2
201 | LPNT | ≤ 0.2
202 | AWTF | ≤ 0.2
203 | KLRI | ≤ 0.2
204 | VLAG | ≤ 0.2
205 | ANYT | ≤ 0.2
206 | TYVR | ≤ 0.2
207 | CFLW | ≤ 0.2
208 | ESDN | ≤ 0.2
209 | ISRY | ≤ 0.2
210 | LHHR | ≤ 0.2
211 | KVGG | ≤ 0.2
212 | KDRR | ≤ 0.2
213 | PEHV | ≤ 0.2
214 | WKIC | ≤ 0.2
215 | QDRV | ≤ 0.2
216 | PVVN | ≤ 0.2

Row | Variant | one-hybrid fitness for binding NBS DNA
217 | NLFC | ≤ 0.2
218 | IRFG | ≤ 0.2
219 | RQWM | ≤ 0.2
220 | TSQS | ≤ 0.2
221 | TYNL | ≤ 0.2
222 | GQGT | ≤ 0.2
223 | GCTG | ≤ 0.2
224 | TFKS | ≤ 0.2
225 | REDC | ≤ 0.2
226 | IAVF | ≤ 0.2
227 | TNRC | ≤ 0.2
228 | LSKF | ≤ 0.2
229 | VDCN | ≤ 0.2
230 | WKHL | ≤ 0.2
231 | LGSG | ≤ 0.2
232 | KMDK | ≤ 0.2
233 | IHYR | ≤ 0.2
234 | AMML | ≤ 0.2
235 | ADPY | ≤ 0.2
236 | LFPW | ≤ 0.2
237 | VAMC | ≤ 0.2
238 | NINM | ≤ 0.2
239 | TCRY | ≤ 0.2
240 | DSEM | ≤ 0.2

Row | Variant | one-hybrid fitness for binding NBS DNA
241 | TQLL | ≤ 0.2
242 | GVCN | ≤ 0.2
243 | GASL | ≤ 0.2
244 | GLHC | ≤ 0.2
245 | RLPM | ≤ 0.2
246 | QYTF | ≤ 0.2
247 | RTSL | ≤ 0.2
248 | TSHE | ≤ 0.2
249 | RHAP | ≤ 0.2
250 | TLYP | ≤ 0.2
251 | RRNE | ≤ 0.2
252 | QMSD | ≤ 0.2
253 | YSRP | ≤ 0.2
254 | SCHR | ≤ 0.2
255 | QMCG | ≤ 0.2
256 | YSAN | ≤ 0.2
257 | QNTS | ≤ 0.2
258 | LRAD | ≤ 0.2
259 | MTSP | ≤ 0.2
260 | REVT | ≤ 0.2
261 | RVHY | ≤ 0.2
262 | RWTN | ≤ 0.2
263 | LQKG | ≤ 0.2
264 | RPKL | ≤ 0.2

Row | Variant | one-hybrid fitness for binding NBS DNA
265 | RQLR | 0.359
266 | LQEM | ≤ 0.2
267 | ALHR | ≤ 0.2
268 | KVSV | ≤ 0.2
269 | TLAR | ≤ 0.2
270 | RVHQ | ≤ 0.2
271 | AYYY | ≤ 0.2
272 | YSGD | ≤ 0.2
273 | VPPC | ≤ 0.2
274 | VDTE | ≤ 0.2
275 | TMHK | ≤ 0.2
276 | SIRR | ≤ 0.2
277 | DGTR | ≤ 0.2
278 | SLKL | ≤ 0.2
279 | QCGV | 0.221
280 | QFRV | ≤ 0.2
281 | ATPY | ≤ 0.2
282 | RCMT | 0.492
283 | SLSR | ≤ 0.2
284 | RARL | ≤ 0.2
285 | EKVL | ≤ 0.2
286 | LGIW | ≤ 0.2
287 | QKCR | 0.519
288 | RQPT | ≤ 0.2

Row | Variant | one-hybrid fitness for binding NBS DNA
289 | AFTL | ≤ 0.2
290 | FPTC | ≤ 0.2
291 | LETL | ≤ 0.2
292 | NTLW | ≤ 0.2
293 | MYND | ≤ 0.2
294 | KCGS | ≤ 0.2
295 | PMHL | ≤ 0.2
296 | HLGS | ≤ 0.2
297 | SCMA | ≤ 0.2
298 | IDLM | ≤ 0.2
299 | KISS | ≤ 0.2
300 | ILVC | ≤ 0.2
301 | QIAI | ≤ 0.2
302 | PWTC | ≤ 0.2
303 | KTAM | ≤ 0.2
304 | VQIN | ≤ 0.2
305 | QSKQ | 0.351
306 | LVPR | ≤ 0.2
